The values below are quoted from earlier work in publication PMC11006913.

Some of the results follow.

Common to all, as to conditions: PBM; conditions not shown; double strand, one strand shown; scale: upbm affinity estimate (log intensity, higher = more binding, comparable within an allelic series)
The target of data set [1] is HOXD13 I297V (Homo sapiens) (UniProt P35453).
In data set [2] the target is HOXD13 I322L (Homo sapiens) (UniProt P35453).
The target in data set [3] is HOXD13 N298S (Homo sapiens) (UniProt P35453).
In data set [4] the target is HOXD13 Q325K (Homo sapiens) (UniProt P35453).
For data set [5], the target named is HOXD13 Q325R (Homo sapiens) (UniProt P35453).
The target in data set [6] is HOXD13 R306W (Homo sapiens) (UniProt P35453).
Data set [7] addresses HOXD13 S316C (Homo sapiens) (UniProt P35453).

Take CCTCGTAA [8-mer CCTCGTAA]: the binding signal is 12.3 in data set [1]; 12.4 in data set [2]; 12.4 in data set [3]; 10.3 in data set [4]; 11.1 in data set [5]; 11 in data set [6]. In addition, in data set [7], the binding signal was 12.1.
Turning to TCATTAAA [8-mer TCATTAAA], the binding signal in data set [1] was 12.5; in data set [2] it was 12; in data set [3], 12.7; in data set [4] it was 11.2; in data set [5], 11.9; in data set [6] it was 11.9. Also, in data set [7], the binding signal was 12.4.
On to CCCCGGTC [8-mer CCCCGGTC], for which the binding signal is 9.51 in data set [1]; 9.48 in data set [2]; 9.45 in data set [3]; 9.52 in data set [4]; 9.39 in data set [5]; 9.43 in data set [6]. The binding signal in data set [7] is 9.44.
As for CCGACGCG [8-mer CCGACGCG], the binding signal in data set [1] is 9.52; in data set [2], 9.53; in data set [3], 9.4; in data set [4] it was 9.54; in data set [5], 9.46; in data set [6], 9.47. Further, the binding signal in data set [7] is 9.46.
In the case of ATTTTATA [8-mer ATTTTATA], the binding signal in data set [1] was 12.4; in data set [2], 11.4; in data set [3] it was 12.6; in data set [4], 12.6; in data set [5] it was 12.5; in data set [6] it was 12. The binding signal in data set [7] is 12.3.
Consider CATAAAAC [8-mer CATAAAAC], for which the binding signal in data set [1] was 12.4; in data set [2], 11.3; in data set [3], 12.6; in data set [4], 11.5; in data set [5], 12; in data set [6], 11.7. Moreover, the binding signal in data set [7] was 12.1.
As for CTGCGGAC [8-mer CTGCGGAC], the binding signal was 9.55 in data set [1]; 9.53 in data set [2]; 9.37 in data set [3]; 9.27 in data set [4]; 9.39 in data set [5]; 9.31 in data set [6]. Besides, the binding signal in data set [7] was 9.43.
Turning to CGGGCGGA [8-mer CGGGCGGA], the binding signal in data set [1] was 9.51; in data set [2], 9.43; in data set [3], 9.47; in data set [4] it was 9.61; in data set [5] it was 9.48; in data set [6] it was 9.4. Further, the binding signal in data set [7] was 9.41.
For the sequence CCCCCTCG [8-mer CCCCCTCG], the binding signal in data set [1] was 9.52; in data set [2], 9.32; in data set [3], 9.52; in data set [4], 9.46; in data set [5], 9.5; in data set [6], 9.2. Besides, the binding signal in data set [7] is 9.37.
In the case of CTTGGCGC [8-mer CTTGGCGC], the binding signal in data set [1] is 9.4; in data set [2], 9.32; in data set [3], 9.35; in data set [4], 9.39; in data set [5] it was 9.28; in data set [6], 9.41. In addition, the binding signal in data set [7] was 9.43.
CTCGTAAA [8-mer CTCGTAAA]: the binding signal was 13.3 in data set [1]; 13.4 in data set [2]; 13.6 in data set [3]; 10.3 in data set [4]; 11.9 in data set [5]; 12.6 in data set [6]. Also, the binding signal in data set [7] is 13.3.
With CGGGTGGC [8-mer CGGGTGGC], the binding signal was 9.22 in data set [1]; 9.31 in data set [2]; 9.2 in data set [3]; 9.35 in data set [4]; 9.49 in data set [5]; 9.33 in data set [6]. In addition, the binding signal in data set [7] is 9.25.
